# Results: publication PMC4336329 (PLoS ONE, 2015)
# Among all 310,000 compounds or so, about 14,000 (4.5%) showed an effect of 50% or more. Effects have a minus sign here. Some of the results follow.
# Target: human ether-à-go-go-related gene (hERG) potassium channel (human, UniProt Q12809)
# Assay: primary screen, population patch clamp on CHO cells stably expressing hERG
# 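Note: peak tail current of the secondary pulse compared with the same well before compound.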
# Chain of human ether-à-go-go-related gene (hERG) potassium channel (Q12809 whole entry, looked up): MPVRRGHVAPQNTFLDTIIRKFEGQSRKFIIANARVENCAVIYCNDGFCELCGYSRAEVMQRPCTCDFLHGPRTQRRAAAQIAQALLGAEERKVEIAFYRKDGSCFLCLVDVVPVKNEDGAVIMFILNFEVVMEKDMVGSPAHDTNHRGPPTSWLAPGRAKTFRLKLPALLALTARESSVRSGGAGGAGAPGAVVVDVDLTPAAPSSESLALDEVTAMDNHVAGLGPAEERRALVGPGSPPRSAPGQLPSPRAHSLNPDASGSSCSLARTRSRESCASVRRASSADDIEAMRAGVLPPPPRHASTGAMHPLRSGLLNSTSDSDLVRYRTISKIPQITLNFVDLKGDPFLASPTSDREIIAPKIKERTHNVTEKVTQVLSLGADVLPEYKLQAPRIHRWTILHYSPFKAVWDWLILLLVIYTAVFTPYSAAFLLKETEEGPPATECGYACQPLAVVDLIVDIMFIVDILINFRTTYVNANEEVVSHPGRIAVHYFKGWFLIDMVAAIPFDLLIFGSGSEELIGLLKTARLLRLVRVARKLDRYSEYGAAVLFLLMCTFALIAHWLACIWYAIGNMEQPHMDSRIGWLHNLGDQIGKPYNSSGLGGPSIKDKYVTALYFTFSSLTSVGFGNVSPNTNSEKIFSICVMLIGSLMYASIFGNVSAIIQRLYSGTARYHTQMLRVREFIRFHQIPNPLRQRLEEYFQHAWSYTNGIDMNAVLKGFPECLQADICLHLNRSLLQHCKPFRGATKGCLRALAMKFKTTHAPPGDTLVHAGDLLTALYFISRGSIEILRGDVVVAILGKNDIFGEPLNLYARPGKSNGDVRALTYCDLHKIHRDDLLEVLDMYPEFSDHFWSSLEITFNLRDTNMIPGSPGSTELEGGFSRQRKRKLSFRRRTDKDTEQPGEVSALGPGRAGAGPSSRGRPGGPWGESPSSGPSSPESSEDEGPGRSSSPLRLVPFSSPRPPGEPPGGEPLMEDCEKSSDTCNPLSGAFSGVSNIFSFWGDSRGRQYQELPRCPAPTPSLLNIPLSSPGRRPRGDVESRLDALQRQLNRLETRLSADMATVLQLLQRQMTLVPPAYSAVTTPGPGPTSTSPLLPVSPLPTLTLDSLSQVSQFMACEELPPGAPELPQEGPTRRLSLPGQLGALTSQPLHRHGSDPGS
row,SMILES,"hERG current change (%, negative = inhibition) at 10uM"
1,CCN1CCN(Cc2ccc(OCc3ccccc3)c(OC)c2)CC1,-17.7%
2,COc1ccc(N2CCN(Cc3nc(N)nc(N4CCCc5ccccc54)n3)CC2)cc1,-27.9%
3,CN(C)C(C(=O)Nc1cc(Cl)cc(Cl)c1)c1ccccc1 (stereo not drawn),-3.96%
4,O=S(=O)(NCCCSc1ccccc1)c1ccccc1F,-79.6%
5,O=C(CSc1nnc(C2CC2)n1CC1CCCO1)Nc1ccc(Cl)cc1 (stereo not drawn),-56.8%
6,COc1ccc(OC)c(NC(=O)C(=O)N/N=C/c2ccccc2[N+](=O)[O-])c1,5.79%
7,O=C(NCCCN1CCOCC1)c1ccc2nc(Cc3cccc(Cl)c3)oc2c1,-7.7%
8,O=C(CC(Nc1ccc(F)cc1)C(=O)O)c1ccccc1 (stereo not drawn),12.5%
9,COc1cc(NC(=S)Nc2ccccn2)cc(OC)c1,0.145%
10,Cc1ccc(-n2c(C)c3c(C)nnc(C)c3c2C)cc1C,-34%
11,COc1ccc(C=C2C=C(C(C)(C)C)C(=O)C(C(C)(C)C)=C2)cc1OC,20%
12,Cc1cc([N+](=O)[O-])ccc1NC(=O)CSc1nncn1-c1ccccn1,-28.1%
13,COc1ccc(NC(=O)CN(C)C(=O)CNC(=O)c2sc3ccccc3c2Cl)cc1,-49.6%
14,O=C(CCNC(=O)c1ccc(Br)cc1)Nc1cccc(S(=O)(=O)N2CCCC2)c1,-32.7%
15,O=C(Oc1cccc(N2C(=O)CCC2=O)c1)C1CC(=O)N(c2ccc(Br)cc2)C1 (stereo not drawn),-3.94%
16,Cc1ccccc1NC(=O)C(C)SCc1ccccc1 (stereo not drawn),-6.37%
17,CSc1ccc(C2NN=C(c3ccccc3)S2)cc1 (stereo not drawn),-32.7%
18,COc1cc(OC)cc(C(=O)NN(CCC#N)C2=NS(=O)(=O)c3ccccc32)c1,14.8%
19,C=CCOC(=O)/C=C/C(=O)NC(N)=O,14.6%
20,CCOC(=O)C(/C(N)=N/C(=O)Nc1ccccc1)=C(\C)O,5.23%
21,CC(=O)c1c(C)[nH]c(C(=O)COc2ccc3c(C)cc(=O)oc3c2)c1C,7.54%
22,CCOc1ccc(NC(=O)Nc2cccn(Cc3ccccc3)c2=O)cc1,13.7%
23,CC(C)(C)c1csc(NC(=O)Cc2cccs2)n1,6.32%

row,SMILES,"hERG current change (%, negative = inhibition) at 10uM"
1,CC(C(=O)N/N=C/c1ccc(N(C)C)c(Br)c1)N(c1ccccc1)S(C)(=O)=O (stereo not drawn),-1.12%
2,CCN1CCN(S(=O)(=O)Cc2ccccc2Cl)CC1,10.5%
3,CC(C)Cn1c(N)c(C(=O)NCC2CCCO2)c2nc3ccccc3nc21 (stereo not drawn),-22.3%
4,COc1ccc(C(=O)NC(=S)Nc2ccccc2F)cc1,9.53%
5,Cc1ccc(NC(=O)CSC(C)C(=O)OC(C)C(=O)NC2CCCCC2C)cc1 (stereo not drawn),-6.64%
6,COc1cccc(CC(=O)OCC(=O)NNC(=O)c2ccc(Br)cc2)c1,-1.87%
7,Cc1nn(C)c(C)c1NC(=O)CCSc1nc(-c2ccco2)cc(C(F)(F)F)n1,-5.5%
8,O=C(O)CCCNC(=O)CC1S/C(=N/N=C/c2ccccc2O)NC1=O (stereo not drawn),22.8%
9,CCN1CCN(Cc2cc(=O)oc3cc(C)cc(C)c23)CC1,-68.1%
10,FC(F)Oc1ccc(/C=N/NC(=S)Nc2cc(C(F)(F)F)ccc2Cl)cc1,8.33%
11,O=[N+]([O-])c1ccc(Nc2cccc(F)c2)nc1,14%
12,Cc1cccc(-n2nnc(C(=O)NCc3ccccc3)c2N)c1,-6.41%
13,CCOc1ccc2nc(SCC(=O)Nc3nonc3C)[nH]c2c1,14%
14,CCc1ccc(/C=N/NC(=O)c2cc(-c3ccncc3)nc3ccccc23)s1,-5.07%
15,CC(C)CNc1nc(N)c([N+](=O)[O-])c(NCC2CCCO2)n1 (stereo not drawn),-10.7%
16,COc1ccc(-c2cc(=O)oc3c(C)c(O)c(CN(C)C)cc23)cc1,-18.9%
17,Cc1ccc(NC(=S)N2CCC(c3ccc(C)cc3)C2)cc1 (stereo not drawn),3.6%
18,CCN=c1sc2ccccc2n1CC(O)COc1ccccc1 (stereo not drawn),-44%
19,Cc1cc(NC(=O)CCC(=O)N(c2ccccc2)C(C)C(=O)NC2CCCC2)no1 (stereo not drawn),11.7%
20,C=CCNc1cc(N2CCCC2)ccc1[N+](=O)[O-],18.2%
21,O=C(Nc1nc2c(Cl)ccc(Cl)c2s1)c1ccco1,14.1%
22,O=C1CS/C(=C\[N+](=O)[O-])N1c1ccc(OC(F)(F)F)cc1,-2.61%
23,Cc1nc(C(F)(F)F)ccc1C(=O)Nc1ccc(C(F)(F)F)cn1,4.72%

row,SMILES,"hERG current change (%, negative = inhibition) at 10uM"
1,Cc1nnc(C)c2c(C)n(-c3ccc4ncccc4c3)c(C)c12,-21.5%
2,CC(C)(C)NC(=O)C(c1ccc(F)cc1)N(CCc1ccccc1)C(=O)c1ccn[nH]1 (stereo not drawn),-10.3%
3,O=C(Nc1ccc(C(F)(F)F)cc1)c1cccnc1N1CCOCC1,-11.6%
4,CCOC(=O)c1c(C)[nH]c(C(=O)OCc2ccc(F)cc2)c1C,-0.855%
5,Cc1cccc(NC(=O)CCN2CC(C)CC(C)C2)c1.Cl (stereo not drawn),-49.2%
6,Cc1cccc(C)c1NC(=O)C(NC=O)c1ccccc1 (stereo not drawn),-64.1%
7,O=C(c1ccccc1)N1CCCC(c2ccc(Cl)cc2)=N1,5.35%
8,CCCCNC(=O)Oc1c(Br)cc2sc(=O)oc2c1Br,8.56%
9,N#CC1=C(N)NC(SCc2ccc(F)cc2)=C(C#N)C12CCCCC2,-8.87%
10,Cc1nn(C)c(C)c1NC(=O)c1ccc(Br)o1,5.89%
11,CCOC(=O)N1CCC(N2Cc3cccc(C(=O)Nc4ccc(CC)cc4)c3C2=O)CC1,-42.6%
12,Cc1ccc(N=Nc2c(O)[nH]c(=O)[nH]c2=O)c([N+](=O)[O-])c1,-5.68%
13,COCCCNS(=O)(=O)c1ccc(C)cc1,4.42%
14,Cc1ccc(CNC(=O)C2CCC(=O)N(CCCN3CCOCC3)C2)cc1 (stereo not drawn),19%
15,COc1ccc(C2Nc3cccc4cccc(c34)N2)cc1,7.31%
16,O=C(Cn1c(=O)n(-c2ccccc2)c(=O)c2sccc21)N1CCCC1,3.63%
17,COc1cccc(-n2c(SCC(=O)NC3CCS(=O)(=O)C3)nc3ccccc3c2=O)c1 (stereo not drawn),-5.65%
18,CC1Cc2cc(/C(O)=C3/C(=O)C(=O)N(CCCn4ccnc4)C3c3ccc(F)cc3)ccc2O1 (stereo not drawn),6.51%
19,C/C(=N/NS(=O)(=O)c1ccc(C)cc1)c1cccc(NC(=O)c2cccc(Cl)c2)c1,-0.128%
20,CN(C#N)c1nccc(-c2cccs2)n1,-13%
21,CCOc1ccc(C(=O)N2CCN(c3ccccn3)CC2)cc1OCC,-0.22%
22,COc1ccccc1CC(=O)Nc1ccc(S(=O)(=O)N2CCCC2)cc1,-5.62%
23,CC(=O)Nc1cccc(Oc2ncccc2[N+](=O)[O-])c1,10.7%

row,SMILES,"hERG current change (%, negative = inhibition) at 10uM"
1,COC(=O)c1c(NC(=O)CSc2nnc(-c3ccco3)n2C)sc(C)c1C,-23.5%
2,COCCn1c(SCC(=O)N2CCCC2)nnc1-c1ccco1,18.6%
3,Cc1nn(C)c(C)c1C(C)NC(=O)c1cc(COc2cncc(Cl)c2)on1 (stereo not drawn),23.4%
4,O=C(COC(=O)Cc1ccc(Br)cc1)Nc1c(F)c(F)c(F)c(F)c1F,13.4%
5,O=C(Nc1cc2c3c(c1)CC(=O)N3CCC2)c1c(F)cccc1F,6.97%
6,CCc1nnc(NC(=O)CSc2nnc3c(C)cc4c(C)ccc(C)c4n23)s1,10.3%
7,COC(=O)c1ccc(-n2nc(C(F)(F)F)c3c2-c2ccoc2CC3)cc1,19.9%
8,COc1ccc(NC(=O)CCNS(=O)(=O)c2ccc3[nH]c(=O)oc3c2)cc1Cl,-47.6%
9,Cc1c(C(=O)Nc2nccs2)oc2c(Cl)cccc12,9.58%
10,CCN(CC)CCN(Cc1cc2cc(C)cc(C)c2[nH]c1=O)C(=S)NCc1ccco1,-52.5%
11,COC(=O)c1ccc(CSc2nc(N)cc(N)n2)cc1,-9.79%
12,O=C(Nc1ccc(F)cc1)C(=O)C1C(=O)Nc2ccccc21 (stereo not drawn),-14.9%
13,O=C(CCc1nnc(COc2ccccc2)o1)NCc1ccccc1C(F)(F)F,4.39%
14,CC1CC(C)CN(C(=O)CSc2nnc(-c3ccc(Cl)s3)o2)C1 (stereo not drawn),-5.96%
15,CCCc1nn2c(N)c(/C=C3\C=Nc4ccccc43)c(=O)nc2s1,15.8%
16,O=C(N/N=C1\CCc2ccccc21)c1ccccc1Cl,19.2%
17,CCCN(CC(=O)Nc1ccccc1C)C(=O)C1CCN(S(=O)(=O)c2ccccc2C(F)(F)F)CC1,-21.5%
18,CCOc1ccccc1NC(=S)N(CCN(C)C)C(C)c1ccncc1 (stereo not drawn),-15.3%
19,N#Cc1ccc(CN2CCN(C(=O)c3ccc(S(=O)(=O)N4CCCCCC4)cc3)CC2)cc1,-40.9%
20,Cc1ccc(SCCOCCN2CCc3ccccc3C2)cc1,-60.5%
21,O=C(c1ccccc1OCc1ccccc1Br)N1CCN(c2ncccn2)CC1,-37.2%
